# About 18,000 (5.8%) of roughly 310,000 compounds were called active. The inconclusive results got no clear call from the source; some entries with a clear call stand among them for comparison. The call rests on the fitted dose curve; in most records, active means well fitted inhibition curve with a large enough effect; inconclusive means small, poorly fitted or top-dose-only effect, or another doubt; inactive means no such curve, though single readings can be large or run the other way. No potency is given beside an inconclusive call; the fits are too rough.
# Test: Primary qHTS for delayed death inhibitors of the malarial parasite plastid, 48 hour incubation
# Conditions: P. falciparum luciferase growth in erythrocytes; series mostly up to 28.7 µM
# In short: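 Luminescence readout; reporter = integrated firefly luciferase in P. falciparum. RBC culture at 2% hematocrit, 0.1% parasitemia final, 37 C/5% CO2; decreased signal taken as growth inhibition.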
# Potency means the concentration at half of the fitted maximal effect; tags describe the fitted curve by direction and shape.
row,Structure (SMILES),Potency
1,CCOC(=O)c1cc(-c2ccc(C)cc2)n(CCC(=O)NCCN(C)C)c1C,"inconclusive [inhibitor, partial curve, poor fit]"
2,Cc1cccc(C)c1OCC(O)CNC(C)c1ccccc1 (stereo not given),"inconclusive [inhibitor, partial curve, poor fit]"
3,COc1ccc(C(=O)c2c(N)sc3c2CCN(C)C3)cc1,"inconclusive [inhibitor, partial curve]"
4,O=C(Nc1ccccc1)C1=C[C@@H](c2ccccc2)C[C@@H](OCc2ccc(CO)cc2)O1,inactive
5,COc1ccc(-c2nnc(SCC(=O)NC3CCCCC3)n2N)cc1,inactive
6,COc1ccccc1C(=O)NC(=O)COC(=O)c1ccc(Br)o1,"inconclusive [inhibitor, single point]"
7,Cc1ccccc1OCC(=O)N(Cc1nc(-c2ccccc2)no1)C(C)C,"inconclusive [inhibitor, single point]"
8,FC(F)(F)Oc1ccc(NC(=S)Nc2ccccc2N2CCOCC2)cc1,"inconclusive [inhibitor, partial curve, poor fit]"
9,NC(=O)CNC(=O)[C@@H]1CC2(CC(c3ccc(Cl)cc3)=NO2)CN1C(=O)c1ccccc1 (stereo not given in full),inactive
10,COc1ccc2c(c1)CCC(C)N2S(=O)(=O)c1ccc(C2CNC(=O)C2)cc1 (stereo not given),"inconclusive [inhibitor, single point]"
11,COc1ccc(C(=O)Cn2cc[n+](C)c2)cc1,active: 11.7 µM
12,Cc1ccc(S(=O)(=O)/C(C#N)=C/c2c(N3CCN(C)CC3)nc3ccccn3c2=O)cc1,inactive
13,COC(=O)Nc1ccc2c(c1)OCO2,"inconclusive [inhibitor, single point]"
14,CCOc1ccc(N(CC(=O)NC(C(C)C)C(C)C)S(=O)(=O)c2ccc(OC)c(OC)c2)cc1,"inconclusive [inhibitor, single point]"
15,O=C(Cn1nnc(-c2ccc(F)cc2)n1)OCC(=O)c1ccccc1,inactive
16,CS(=O)(=O)N(Cc1ccccc1)c1ccc(C(=O)Nc2ccccc2Sc2ccccc2)cc1,active: 11.7 µM
17,COc1ccc(/C(N)=N/OC(=O)Cc2ccc(C)cc2)cc1OC,inactive
18,CN1C(=O)/C(=C/c2coc3ccc(O)cc3c2=O)SC1=S,inactive
19,CCOc1ccc(OCC)c(S(=O)(=O)n2cnc(C)c2)c1,"inconclusive [inhibitor, partial curve]"
20,Cc1ccc(-n2nnnc2C(=Cc2ccc(N(C)C)cc2)c2nnnn2-c2ccc(C)cc2)cc1,"inconclusive [inhibitor, partial curve]"
